In the supplement of paper PMC10126150:
Values marked as one replicate rest on one cluster of the flow cell; about a third of the high ones do not repeat.

Test system: ATP
Assay: switch fluorescence ratio, 500 uM ATP over buffer (Cy3 cluster intensity, sum of 5 cycles each) (fold (ratio)); higher = stronger signal-on switching upon ATP binding; sequences stand for … in TCGTCGGCAGCGTCAGATGTGTATAAGAGACAGTTTTTTTTTTTTTTTTTTTTTTTTT…TC
Conditions: aptamer strand: ATP DNA aptamer (quencher-CACCTGGGGGAGTATTGCGGAGGAAGG + anchor), 100 nM annealed; ATP concentration: 500 uM; one replicate
In short: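 Cy3-labelled switching-strand clusters on a modified Illumina MiSeq flow-cell were annealed to 100 nM quencher-labelled ATP aptamer, imaged in selection buffer, then imaged after 15 min with 500 uM ATP at 22 °C. Five buffer/ATP cycles ran, with NaOH stripping and re-annealing between them. The fluorescence ratio is summed target-cycle over summed buffer-cycle Cy3 intensity per cluster, averaged per switch-domain sequence. Clusters outside 100-1000 RFU were excluded.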
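Also: ATP exposure 15 min at 22 °C before imaging.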

Sequence	switch fluorescence ratio
TCGCACACGG	1.24
CAGGAGATGT	1
TCCTTACCCA	1.74
CTTGCGTTGG	0.985
GATTAGCCTG	1.06
GTTTGACGTA	0.956
TAGAAATGAG	0.991
TTACGGCACG	1.07
ATTTTTATAG	1.06
ACGTGAGGGT	1.06
AACCTGTGTT	0.958
ATGCGTATA	1.03
GCGGGTCTAG	1
TATCAGTGCC	1.03
ACGTCGGTC	1.01
CACTAACTTG	1.04
TGTACCAGTA	0.988
TGGTACTTC	0.974
CGCACACTTC	2.47
GAGGGTTAAC	1.39
CTAGGGTCCT	1.01
ACTCCATGTA	1.07
GGGCGCTATT	0.984
CGTGTGGAG	0.998
AAGTCACGGA	1.07
TACATAAGAC	1.09

Sequence	switch fluorescence ratio
ACAACGTG	0.989
CTCACCAAGA	1.13
AAGTCCATG	0.996
CCGAAAAGAG	1.1
CTGATAGGTC	0.98
TCGAAATGGG	0.95
GGTCGTGCTT	1.02
CCTAACAGCT	1.1
GGTTTGTCCC	1.04
AGGCGGTGAC	1.04
AGACCAGAAT	0.984
TTAGCCTGCT	1.05
GCTACTGGAG	1.03
AACGGGCCCA	0.975
CGTTCTCGAA	0.986
TCATTGTATA	0.966
ACAGACCTTT	1.15
CGGCGTCATT	0.999
GAGAGAGCGT	0.991
GCTGACTCA	1.07
AACAGTATTG	1.01
ACGGTCTGGT	1.02
CCTTTTAAAG	0.951
GGGGTTGCGG	1
ACGTCCACTT	1.76
AACCGCGTTC	1.79

Sequence	switch fluorescence ratio
TCGGGCTGCC	0.996
AATCTGGCTA	0.984
AATGCGTCAG	0.988
GAGTCGAAGG	1.04
ATAACATCAG	0.989
TCATTGCACC	1.06
GCCCGAAGAG	1.67
CGTGGACCAT	1.02
ACCTACTTCA	1.2
AAGTGCAGAG	0.98
GACGCCCCTT	1.14
AGTAGTTAGT	0.999
TCTAGGCGTA	0.98
CAGTCTAGGC	1.05
GGACGAACGC	1.9
ATTGTTATGA	1.05
AGGAGACTAA	0.988
ACTCTTGACA	1.04
ATGTGTAGAC	1.01
TCGCAAGCAG	1.59
CCATACAGTG	1.09
TAGACTTAGT	0.976
TAATAAGTTG	1.03
GCTTCGGTAC	4.12
ACTTTGTGTA	0.992
TGCCTGGACG	0.996

Sequence	switch fluorescence ratio
ACTTTAGTCC	1.03
CGCTTAGAGG	1.04
AGTCCACCTT	1.07
CTTAGCGCAA	2.25
AGCGTGTT	1
GGTACATTCG	1.08
CGGAGTAGGA	1.04
TGACCTTTAT	1.05
TGTAAGTTGA	1.03
ATCCAGAGCG	1.06
GCATTCAGTC	1.02
TACGAAGGT	1.02
ACGGAGGACA	1.05
CGGGCTTAGC	1.03
GGAGACCGAA	1.04
CGAGGGCGGA	1.02
TTGAGCGGCG	0.982
TATTAGTGAG	0.993
GAGTTAATA	0.99
ACGGGCCTGT	1.04
TGTTATGAA	1.02
TCTGCTCTAC	2.54
GACCGTTTAA	1.02
CACGCCGTTC	1.05
TGGTCCGTCA	1
CGCAGACAG	1.04

Sequence	switch fluorescence ratio
TTTAGCACGC	1.05
TAAGCGTAAT	1.06
ATGTCTTCGT	0.997
TGGTGTCATA	0.97
TCATTATTAC	1.08
CAATTCGGTA	1
TCTATAGGGT	1.07
ACGTGTCTCA	0.954
GGCTGAAGTC	0.957
CAGGAAGAGG	0.956
TTTTGATGTC	0.953
TATAGGGTCG	0.91
TGCTCGTCCG	1
CTGCGGGAGT	1
GCCAGGGGG	1.08
AGGTTTCTTG	1.03
CAGGTGACCA	1.11
GGTAGTCGCG	0.951
GCCAAAGGTT	1.02
CCGCTTTAGC	1.28
TATACTCAT	1.09
TTATTCCGAC	1.48
AAAGCCAACT	0.958
TAGGGGCTGG	1.09
CGTAATCGTG	1.04
CTGCTATGGC	1.07

Sequence	switch fluorescence ratio
CAGGATTTA	0.985
GACATTCGAG	1
AAACGAAGTC	1.02
GAGTAAGATA	0.932
ATTCTTTTAT	1.02
GAGAGTTTAG	0.995
GCTGGTACTT	1.01
TTCCGGAGGT	1.14
TGCTGTTGCG	0.966
TAAGGTTGCG	1.01
TTGGTACGA	1.02
CATGGCGCAG	1
GACACCGACG	1.51
AGGTGCTGGA	1.04
TTACTCCCGG	1.69
TCCTGTGCGC	1.5
TTCTGGTAGT	0.998
GCGTACGAAA	1.02
TCCCGCCACG	1.09
GCTCGAAGGG	0.986
CATTAAGCCT	1.11
GGCTGCCCCC	0.986
CCCAACGTGG	1.01
CTTTGTGGGA	0.998
ATATTCGTTC	1.01
ACCAGAGGGG	0.993

Sequence	switch fluorescence ratio
GTGCTGGG	1
TGGTAAAAGT	0.97
CTCTAGCGCG	0.949
CGTGTCATGC	1.03
CCAGCGGCGC	0.97
ACTCCGGTG	1.9
AACGGCCGTA	1.02
ACAATGCTT	1.05
TTAAGTTCT	0.992
ACTCTGAAAT	3.53
GCCGGCAGAA	0.99
GCTATACGTC	1.19
ATACGAATAG	1.03
GGAGGTTAT	0.97
AGTACTGTAG	1.02
CCCCGACATC	3.95
ATCAGTTTTT	0.934
TACTTACATG	1.28
CGCCTGGTCC	1.13
GGGGTAGGCT	1.03
GGAGGCAGAG	0.97
TTTGGAAGAA	0.995
CTTCGTTATT	1.07
AGGCTCTGTG	0.953
CCAGTGAATG	0.986
CTAAAACCAT	1.1

Sequence	switch fluorescence ratio
TTGGATAGGA	1.06
AAGAGCCCTT	0.988
AGTTGCGTGA	1.02
CACCAGTGGT	1.05
TATCGCCCAA	1.02
GTTGGGCCAA	1.02
TTAGGTTAAG	0.968
GGTAAATTAT	1.01
CGGAGGTATC	1.06
CCGACTAACG	1.33
CGGCTGATGG	1.05
TGATAACGCT	1.08
TATAGCCCTT	1.08
AAATGAACGC	1.07
CCTGACAAAA	1.14
CGACGTTCAG	0.977
TCGGAGAACA	0.969
TATGGATTC	0.967
GTCCGTAGGT	1.01
